Data published in patent publication US20240076343A1.
Blank lines part the entries; values can stand above or below the binder they belong to.

Experiments:
Test in all cases: cell-based or functional assay
[1] = target: intermediate affinity hIL-2 receptor complex (IL-2Rβγ) (human) (UniProt P14784)
[2] = target: high-affinity hIL-2 receptor (IL-2Rαβγ) on NK-92 cells (human) (UniProt P01589)
[3] = target: intermediate affinity hIL-2 receptor complex (IL-2Rβγ) on TF1+IL-2Rβ cells (human) (UniProt P14784)
[4] = target: high-affinity hIL-2 receptor (IL-2Rαβγ) (human) (UniProt P01589)
[5] = target: intermediate affinity hIL-2 receptor (hIL-2Rβγ) on TF1+IL-2Rβ cells (human) (UniProt P14784)

Fold change from rhIL-2 (TF1 + IL-2Rβ), pSTAT5 titration [1]: 411 fold | Agonistic Activity (NK-92) [2]: 90% | Fold change from hIL-2 (NK-92) [2]: 22 fold | Fold change from rhIL-2 (NK-92) [2]: 641 fold | Fold change from hIL-2 (TF1 + IL-2Rβ) [3]: 4 fold | Agonistic Activity (NK-92), pSTAT5 titration [4]: 80% | Fold change from rhIL-2 (NK-92), pSTAT5 titration [4]: 3580 fold | Fold change from rhIL-2 (TF1 + IL-2Rβ) [5]: 320 fold
B1: 1H3-hIgG1-L6-hIL-2 (D20A/E95A/F42H) (protein)
heavy: EVQLVESGGGLVQPGRSLKLSCAVSGFTFSDYAMAWVRQAPKKGLEWVATISYDGSRTYYRDSVKGRFTISRDNAKITLYLQMDSLRSEDTATYYCARHGSGYFDYWGQGVMVTVSS[not shown - human IgG1 constant region]SGGGGSAPTSSSTKKTQLQLEHLLLALQMILNGINNYKNPKLTRMLTHKFYMPKKATELKHLQCLEEELKPLEEVLNLAQSKNFHLRPRDLISNINVIVLALKGSETTFMCEYADETATIVEFLNRWITFCQSIISTLT
light: DTVLTQSPALAVSPGERVTISCRASESVRTGVHWYQQKPGQQPKLLIYGASNLESGVPARFSGSGSGTDFTLTIDPVEADDTATYFCQQSWNDPFTFGSGTKLEIKRTVAAPSVFIFPPSDEQLKSGTASVVCLLNNFYPREAKVQWKVDNALQSGNSQESVTEQDSKDSTYSLSSTLTLSKADYEKHKVYACEVTHQGLSSPVTKSFNRGEC

Agonistic Activity (TF1 + IL-2Rβ), pSTAT5 titration [1]: 30% | Fold change from rhIL-2 (TF1 + IL-2Rβ), pSTAT5 titration [1]: 1450 fold | Fold change from hIL-2 (NK-92) [2]: 22 fold | Fold change from rhIL-2 (NK-92) [2]: > 10000 fold | Fold change from hIL-2 (TF1 + IL-2Rβ) [3]: 12 fold | Agonistic Activity (NK-92), pSTAT5 titration [4]: 10% | Fold change from rhIL-2 (NK-92), pSTAT5 titration [4]: > 10000 fold | Fold change from rhIL-2 (TF1 + IL-2Rβ) [5]: > 10000 fold
B2: 1H3-hIgG1-L6-hIL-2 (D20A/E95A/F42D) (protein)
heavy: EVQLVESGGGLVQPGRSLKLSCAVSGFTFSDYAMAWVRQAPKKGLEWVATISYDGSRTYYRDSVKGRFTISRDNAKITLYLQMDSLRSEDTATYYCARHGSGYFDYWGQGVMVTVSS[not shown - human IgG1 constant region]SGGGGSAPTSSSTKKTQLQLEHLLLALQMILNGINNYKNPKLTRMLTDKFYMPKKATELKHLQCLEEELKPLEEVLNLAQSKNFHLRPRDLISNINVIVLALKGSETTFMCEYADETATIVEFLNRWITFCQSIISTLT
light: B1 light

Agonistic Activity (TF1 + IL-2Rβ), pSTAT5 titration [1]: 60% | Fold change from rhIL-2 (TF1 + IL-2Rβ), pSTAT5 titration [1]: 82 fold | Fold change from hIL-2 (NK-92) [2]: 21 fold | Fold change from rhIL-2 (NK-92) [2]: > 10000 fold | Fold change from hIL-2 (TF1 + IL-2Rβ) [3]: 4 fold | Agonistic Activity (NK-92), pSTAT5 titration [4]: 50% | Fold change from rhIL-2 (NK-92), pSTAT5 titration [4]: > 10000 fold | Agonistic Activity (TF1 + IL-2Rβ) [5]: 80% | Fold change from rhIL-2 (TF1 + IL-2Rβ) [5]: 272 fold
B3: 1H3-hIgG1-L6-hIL-2 (D20A/E95A/F42K) (protein)
heavy: EVQLVESGGGLVQPGRSLKLSCAVSGFTFSDYAMAWVRQAPKKGLEWVATISYDGSRTYYRDSVKGRFTISRDNAKITLYLQMDSLRSEDTATYYCARHGSGYFDYWGQGVMVTVSS[not shown - human IgG1 constant region]SGGGGSAPTSSSTKKTQLQLEHLLLALQMILNGINNYKNPKLTRMLTKKFYMPKKATELKHLQCLEEELKPLEEVLNLAQSKNFHLRPRDLISNINVIVLALKGSETTFMCEYADETATIVEFLNRWITFCQSIISTLT
light: B1 light

Agonistic Activity (TF1 + IL-2Rβ), pSTAT5 titration [1]: 80% | Fold change from rhIL-2 (TF1 + IL-2Rβ), pSTAT5 titration [1]: 45 fold | Agonistic Activity (NK-92) [2]: 70% | Fold change from hIL-2 (NK-92) [2]: 14 fold | Fold change from rhIL-2 (NK-92) [2]: > 10000 fold | Fold change from hIL-2 (TF1 + IL-2Rβ) [3]: 2 fold | Agonistic Activity (NK-92), pSTAT5 titration [4]: 40% | Fold change from rhIL-2 (NK-92), pSTAT5 titration [4]: > 10000 fold | Fold change from rhIL-2 (TF1 + IL-2Rβ) [5]: 315 fold
B4: 1H3-hIgG1-L6-hIL-2 (R38E/D84K) (protein)
heavy: EVQLVESGGGLVQPGRSLKLSCAVSGFTFSDYAMAWVRQAPKKGLEWVATISYDGSRTYYRDSVKGRFTISRDNAKITLYLQMDSLRSEDTATYYCARHGSGYFDYWGQGVMVTVSS[not shown - about 450 residues with a human IgG1 Fc and changes]
light: B1 light

Agonistic Activity (TF1 + IL-2Rβ), pSTAT5 titration [1]: 70% | Fold change from rhIL-2 (TF1 + IL-2Rβ), pSTAT5 titration [1]: 157 fold | Agonistic Activity (NK-92) [2]: 70% | Fold change from hIL-2 (NK-92) [2]: 6 fold | Fold change from rhIL-2 (NK-92) [2]: 42 fold | Fold change from hIL-2 (TF1 + IL-2Rβ) [3]: 5 fold | Agonistic Activity (NK-92), pSTAT5 titration [4]: 70 to 80% | Agonistic Activity (TF1 + IL-2Rβ) [5]: 80% | Fold change from rhIL-2 (TF1 + IL-2Rβ) [5]: 537 fold
B5: 1H3-hIgG1-L6-hIL-2 (D20A/E95A/R38A) (protein)
heavy: EVQLVESGGGLVQPGRSLKLSCAVSGFTFSDYAMAWVRQAPKKGLEWVATISYDGSRTYYRDSVKGRFTISRDNAKITLYLQMDSLRSEDTATYYCARHGSGYFDYWGQGVMVTVSS[not shown - human IgG1 constant region]SGGGGSAPTSSSTKKTQLQLEHLLLALQMILNGINNYKNPKLTAMLTFKFYMPKKATELKHLQCLEEELKPLEEVLNLAQSKNFHLRPRDLISNINVIVLALKGSETTFMCEYADETATIVEFLNRWITFCQSIISTLT
light: B1 light

Agonistic Activity (TF1 + IL-2Rβ), pSTAT5 titration [1]: 80% | Fold change from rhIL-2 (TF1 + IL-2Rβ), pSTAT5 titration [1]: 115 fold | Agonistic Activity (NK-92) [2]: 80% | Fold change from hIL-2 (NK-92) [2]: 12 fold | Fold change from rhIL-2 (NK-92) [2]: > 10000 fold | Fold change from hIL-2 (TF1 + IL-2Rβ) [3]: 3 fold | Agonistic Activity (NK-92), pSTAT5 titration [4]: 40% | Fold change from rhIL-2 (NK-92), pSTAT5 titration [4]: > 10000 fold | Fold change from rhIL-2 (TF1 + IL-2Rβ) [5]: 803 fold
B6: 1H3-hIgG1-L6-hIL-2 (R38Q/E61R/D20A) (protein)
heavy: EVQLVESGGGLVQPGRSLKLSCAVSGFTFSDYAMAWVRQAPKKGLEWVATISYDGSRTYYRDSVKGRFTISRDNAKITLYLQMDSLRSEDTATYYCARHGSGYFDYWGQGVMVTVSS[not shown - human IgG1 constant region]SGGGGSAPTSSSTKKTQLQLEHLLLALQMILNGINNYKNPKLTQMLTFKFYMPKKATELKHLQCLERELKPLEEVLNLAQSKNFHLRPRDLISNINVIVLELKGSETTFMCEYADETATIVEFLNRWITFCQSIISTLT
light: B1 light
